Measurements taken from PMC4336329 (PLoS ONE, 2015).
The campaign covered roughly 310,000 compounds. About 14,000 (4.5%) showed an effect of 50% or more. The effect is printed as a negative number. The list shows a part of the results.

target: human ether-à-go-go-related gene (hERG) potassium channel (human, UniProt Q12809); assay: primary screen, population patch clamp on CHO cells stably expressing hERG
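Note: peak tail current of the secondary pulse compared with the same well before compound.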

Sequence of human ether-à-go-go-related gene (hERG) potassium channel (Q12809 whole entry, looked up): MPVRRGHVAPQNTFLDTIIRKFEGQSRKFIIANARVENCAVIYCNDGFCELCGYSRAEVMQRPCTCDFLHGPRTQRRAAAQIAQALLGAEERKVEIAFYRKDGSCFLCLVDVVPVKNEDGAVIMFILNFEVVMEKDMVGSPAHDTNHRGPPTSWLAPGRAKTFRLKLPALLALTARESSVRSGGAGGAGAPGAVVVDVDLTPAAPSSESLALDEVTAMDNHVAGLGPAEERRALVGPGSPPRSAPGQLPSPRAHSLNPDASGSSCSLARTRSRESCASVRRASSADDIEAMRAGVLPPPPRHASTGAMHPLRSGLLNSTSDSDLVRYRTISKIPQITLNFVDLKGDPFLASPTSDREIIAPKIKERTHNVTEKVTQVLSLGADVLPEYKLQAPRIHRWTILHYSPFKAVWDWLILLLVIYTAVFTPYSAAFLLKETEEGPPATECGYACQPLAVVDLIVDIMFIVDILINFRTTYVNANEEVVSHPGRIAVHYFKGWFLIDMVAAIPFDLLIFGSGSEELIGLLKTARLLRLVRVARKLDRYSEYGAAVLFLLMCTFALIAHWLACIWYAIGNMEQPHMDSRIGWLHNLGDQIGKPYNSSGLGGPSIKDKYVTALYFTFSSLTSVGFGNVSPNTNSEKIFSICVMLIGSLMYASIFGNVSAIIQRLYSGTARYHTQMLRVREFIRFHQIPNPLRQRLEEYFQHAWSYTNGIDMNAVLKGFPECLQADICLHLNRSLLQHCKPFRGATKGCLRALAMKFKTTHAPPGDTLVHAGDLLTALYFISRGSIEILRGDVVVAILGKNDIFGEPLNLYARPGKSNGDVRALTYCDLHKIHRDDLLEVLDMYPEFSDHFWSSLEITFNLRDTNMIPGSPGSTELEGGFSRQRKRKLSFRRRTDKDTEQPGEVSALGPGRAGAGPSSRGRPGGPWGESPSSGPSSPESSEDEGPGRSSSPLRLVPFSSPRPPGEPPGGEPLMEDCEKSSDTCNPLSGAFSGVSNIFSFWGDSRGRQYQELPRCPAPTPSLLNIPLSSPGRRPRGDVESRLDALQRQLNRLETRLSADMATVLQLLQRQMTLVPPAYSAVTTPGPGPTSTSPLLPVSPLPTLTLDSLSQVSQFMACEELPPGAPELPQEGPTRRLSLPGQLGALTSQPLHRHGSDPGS

Compound	hERG current change (%, negative = inhibition) at 10uM [%]
CCOc1ccc(-n2cnc3c(=O)[nH]c(N)nc32)cc1	7.78
Cc1cc(=O)n2c3ccccc3n(CC(O)CN3CCOCC3)c2c1C#N (centres unmarked)	17.9
Cc1nn2c([nH]c(=O)c3ccccc32)c1C=O	-9.07
Cc1cccnc1NC(=O)Cn1c(=O)oc2ccccc21	23
CCOC(=O)N1CCN(S(=O)(=O)c2c(C)nc3scc(C)n3c2=O)CC1	3.41
Cc1cc(C(=O)Nc2cccc([N+](=O)[O-])c2C)cs1	19.1
COc1ccc(Cl)cc1NC(=O)CN(C)C(=O)Cc1ccc(-c2ccccc2)cc1	-5.3
CCOC(=O)C1CCCN(C(=O)CCCn2c(=O)c3cccn3c3cccnc32)C1 (centres unmarked)	3.04
Cc1cc(=O)oc2cc(OCCc3ccccc3)ccc12	-0.326
CCCNC(=O)COC(=O)/C=C/c1ccc2c(c1)OCO2	3.94
CCC1=NN(C(=O)c2ccccc2O)C(O)(c2ccccc2)C1 (centres unmarked)	6.94
COCCSc1nnc(NC(=O)C2CC(=O)N(c3ccc(C)cc3)C2)s1 (centres unmarked)	2.13
Cn1c(CNC(=O)CNC(=O)c2ccc(C(C)(C)C)cc2)cc(=O)n(C)c1=O	16.2
COc1ccc(S(=O)(=O)N2CCOC23CCN(C(=O)c2c(F)cccc2Cl)CC3)cc1	-17.6
COc1cc(OC)cc(C(=O)N2CCC3(CC2)NCCc2[nH]cnc23)c1	17.2
O=C(/C=C\c1cn(-c2ccccc2)nc1-c1ccccc1)Nc1nccs1	6.78
Cc1ccc(S(=O)(=O)N(C)C)cc1NC(=O)CSc1nncs1	-1.01
COc1ccc2c(c1)[nH]c1c(N3CCN(Cc4ccc5c(c4)OCO5)CC3)ncnc12	-74
O=C(Nc1ccc(S(=O)(=O)N2CCOCC2)cc1)c1ccc(Cl)s1	-5.32
COc1ccc(NC(=O)N2CCC(C(=O)c3ccc(F)cc3)CC2)cc1	-18.6
Oc1ccccc1C(=S)N1CCCC1	13.8
OC1COC(OCC2OC(OCc3ccccc3)C(O)C(O)C2O)C(O)C1O (centres unmarked)	-11.1

Compound	hERG current change (%, negative = inhibition) at 10uM [%]
CC(=O)Nc1ccc(C(=O)NNC(=O)c2ccc(Cl)cc2Cl)cc1	18.1
S=C1NC2=C(CCC/C2=C\c2ccc(Cl)cc2)C(c2ccc(Cl)cc2)N1 (centres unmarked)	-14.8
CC1CCN(C(=O)Cn2nnnc2CN2CCOCC2)CC1	-22
OCC1(CCOc2ccccc2)CCN(Cc2cccn2-c2ncccn2)CC1	-82.2
Cc1cccc(C(=O)NCCCNC(=O)c2cccc(C)c2)c1	-3.67
Cc1ccc(S(=O)(=O)NC2(C(F)(F)F)NC(=O)N(C)C2=O)cc1 (centres unmarked)	-8.17
Cc1cccc(CSc2ncnc3ccccc23)c1	22.5
CC1CCN(S(=O)(=O)c2ccc(C(=O)OC(C)C(=O)NC3CCCCC3C)cc2)CC1 (centres unmarked)	3.77
O=C(Nc1cccc(Cl)c1Cl)c1cc(S(=O)(=O)NCCc2ccccc2)ccc1F	-2.79
COc1ccc(Nc2nc(-c3ccccc3)nc3ccccc23)cc1S(=O)(=O)N1CCOCC1	-15.2
CCC(C)(C)NC(=O)Cc1ccc(Cl)cc1	-5.36
CCOc1ccc(NC2OC(CO)C(O)C(O)C2O)c([N+](=O)[O-])c1 (centres unmarked)	9.94
COc1ccc(Cl)cc1S(=O)(=O)N1CCC(C(=O)N2CCOCC2)CC1	-1.39
CC(C)[C@H](NC(=O)OCc1ccccc1)C(=O)OCC(=O)NC1CCCCC1	0.561
CCOC(=O)Cn1nc(-c2ccccc2)c2cnc3ccc(CC)cc3c21	7.54
CCOc1ccccc1NS(=O)(=O)c1ccc(Br)s1	-4.66
COc1ccc(-c2ccc(NC(=O)c3ccc(Br)o3)cc2)nn1	0.343
CC(C)CCNC(=O)CSc1nc2ccccc2s1	11.9
COc1ccc(OC)c(S(=O)(=O)N2CCC(C(=O)NCCC3=CCCCC3)CC2)c1	-27.1
N#Cc1ccccc1NC(=S)NC(=O)c1cccnc1	13.7
COc1cc(C(=O)OCCNC(=O)c2ccccc2)cc(OC)c1OC	6
CCCc1noc(-c2ccc(-c3ccccc3)cc2)n1	-2.69
